Test results published in the supplement of paper PMC3334620.
The full ranking holds about 33,000 sequences; the median of “E-score (-0.5 to 0.5)” is about -0.04, and the highest 2% start at about 0.36. The list shows a part of the results.

biological target: T1, Hmlalpha2 (UniProt P0CY09); experiment: PBM E-score (8-mer binding enrichment) (E-score (-0.5 to 0.5)); higher = stronger / more preferred TF binding; most listed sequences are background and not binding sites; conditions: protein concentration: 200 nM; construct: GST-full length
T1 sequence: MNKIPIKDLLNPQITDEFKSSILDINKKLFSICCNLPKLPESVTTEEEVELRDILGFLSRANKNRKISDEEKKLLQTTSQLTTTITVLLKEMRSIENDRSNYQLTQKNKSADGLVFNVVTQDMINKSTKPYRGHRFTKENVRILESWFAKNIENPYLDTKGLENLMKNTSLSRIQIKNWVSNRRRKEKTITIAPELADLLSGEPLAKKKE
Procedure, shortened: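 E-scores (a modified Wilcoxon-Mann-Whitney statistic) were assigned by the Universal PBM Analysis Suite to every ungapped eight-base word pooled with its reverse complement. The input came from universal all-10-mer Agilent arrays made double-stranded by primer extension and probed with GST-tagged yeast transcription factors at about 100-200 nM. Fluorescent anti-GST detected bound protein, and masliner normalised the scans.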

Sequence | PBM E-score
CCTGCTCC | -0.19
CCAAGTCA | -0.267
AATAAAAG | 0.00774
AGTTTGGC | -0.089
TCAAGACA | 0.0062
GGGACTCA | -0.288
TCGCACGA | -0.0802
CAGATTCG | -0.0374
ACCAGATG | -0.0977
CCAGACCC | -0.326
CCGAGGGA | -0.271
AGGCGCCA | -0.24
GGTGACAC | -0.103
CGGGCCCC | -0.166
CGCTCTGC | -0.0902
AACTCGTA | 0.157
ATTTCCTC | 0.00737
CATAGCGG | -0.101
AACGCACA | 0.218
GCCGCGGC | -0.242
ATCATGGA | -0.275
AAGTTTGC | 0.0586
CGAGAAAG | -0.0529
CGAGCAGA | -0.211
GCGACCGA | -0.0555

Sequence | PBM E-score
AACTTCCC | -0.114
GGGTTAAA | 0.0819
GGTCCGAC | -0.159
AATGGAGC | -0.156
CAGTTTCG | -0.205
CTTCTGTA | 0.159
CCTCCCCG | -0.141
CGATCAAA | -0.181
AGGAATTA | 0.121
TAACCGCA | 0.0481
CTACGAGA | -0.0224
ATGCTTGG | -0.195
CATGCGCG | 0.0964
ATCGATCC | -0.171
AAGAAGTC | -0.0545
ATTTTTCA | 0.0432
AGAAGAGA | -0.2
CCCCCGGA | -0.355
ACCCTTAT | 0.0605
AAAATTCG | 0.0931
AATCGCGC | -0.087
CGCGGTGA | -0.0723
GAAGCAAC | 0.025
AACGCGTC | 0.238
CAACAGAG | 0.00262

Sequence | PBM E-score
AAAACATC | 0.311
GCGAAATA | 0.181
GGCACCGA | -0.0545
CTGTGGGC | -0.0169
CGGAGACA | -0.0233
CCATACCC | -0.255
CCATTCCA | -0.172
CTGGGAGC | -0.132
AGGAGGGC | -0.171
GATATACC | 0.0787
AAACTTCC | -0.158
GTTCCCCA | -0.0382
AACGCGTT | 0.353
TAGGAACA | 0.0479
GATGTGAA | 0.148
AAACGAAA | 0.115
TAAGCTCA | 0.0656
AAGCTCAG | -0.0791
CCACACGA | 0.00344
CGTTTGAG | 0.0542
GAACTTCC | -0.0697
TGGTATAA | 0.116
AGATATCA | 0.0152
CATAGCGC | 0.141
CATAACGC | 0.226

Sequence | PBM E-score
GTAATTGA | 0.312
GATTTACC | 0.18
GACCGGGA | -0.28
ATGGCAAT | 0.0992
CTAGCTAC | -0.00502
CAAATTCA | -0.138
AATGTCCA | 0.0659
GTTTGGGA | -0.0973
AACAAGCT | 0.291
ACACCACT | 0.149
CCACCCGC | -0.136
GATTCAAA | 0.0244
CATCCCAC | -0.237
GATAGTGC | -0.181
ACTAATGG | -0.12
CAGAGCCG | -0.134
CCTGACAC | 0.00482
ACGCCCCG | -0.232
CGGCGCCA | -0.167
AAGAGGAG | -0.199
ATACCTAG | 0.166
AGTGTGTA | 0.395
CACCTTTA | 0.00338
GAGTTATC | -0.0822
CTCATCTA | -0.167

Sequence | PBM E-score
ACACTCGT | 0.0338
AACATTAA | 0.286
AGTACAGA | -0.00944
TACCGGGA | -0.0534
CGAATCAG | -0.0163
ACCGCATC | -0.294
AGATCACC | -0.0356
CGCGATTC | -0.0628
AGCACTGG | -0.223
GATCCAAA | 0.143
CCACTGAG | -0.178
TACTACTA | 0.189
AGCTCACC | -0.227
ACAACCAT | 0.278
AGTCCGAG | -0.112
AGAGAGAG | -0.172
CCGTTGGA | -0.329
AACCTAGC | 0.0598
GATTGTCA | 0.0647
ATAACCCA | 0.0143
TCCGACGA | 0.0827
TGCGTCAA | 0.118
CATTGCAC | 0.184
CAATTCCC | 0.0909
CTTCAATC | 0.0162

Sequence | PBM E-score
ACATTAAT | 0.199
CGGAGGGC | -0.293
AAAATGAC | 0.0538
ACCCTCGA | -0.278
AGCTGTTA | 0.0595
GTACAAGA | 0.329
CTCCTAGA | -0.257
CAAATAGA | -0.00781
AGAACCCT | -0.256
ATTGAGCA | 0.0182
AAGCTGTA | 0.223
CGCAGTCA | -0.0665
ACATGACT | 0.307
CTATTGCA | 0.117
ACCTGTGG | -0.199
ACGCATAC | 0.236
ACCGTCGC | -0.0991
AGTTTCAC | 0.0645
CGCTGGAC | -0.22
ACTTCCGC | -0.0722
AGAGTGGG | -0.215
ATAATCGA | 0.025
CAGTTGGG | -0.169
CAGTTCCC | -0.207
ACGGCTGC | -0.166

Sequence | PBM E-score
CTCAGGAG | -0.0606
CAGACTAG | -0.151
CACCAGTG | -0.14
CCATCGAA | -0.132
CACGGAGG | 0.0143
CATACGGG | -0.0113
CAAGTATA | 0.0908
AGGGAAGA | -0.143
AGCCGTCG | 0.00897
AAATACTG | 0.0109
ACTGCGCG | -0.137
GACTATTA | 0.0627
TTTAAAAA | 0.109
ATGGATAA | -0.0525
CATGTAGG | 0.407
ATAACGAT | 0.0275
AGGGAATC | -0.112
ATGGCAGC | -0.166
CTCACTGC | -0.0508
AGGAAAAC | -0.0219
ACCACGAA | -0.0406
ACGTGATG | 0.18
